Laboratory results reported in PubChem BioAssay AID686978 (National Center for Advancing Translational Sciences (NCATS), 2013).
Values joined by “and” are separate entries in the source; they are usually repeats but may differ in a detail not shown here. Equal entries are not always repeated. The whole screen tested about 420,000 compounds, of which about 64,000 (15%) were called active. The inconclusive results got no clear call from the source; some entries with a clear call stand among them for comparison. The call rests on the fitted dose curve; in most records, active means well fitted inhibition curve with a large enough effect; inconclusive means small, poorly fitted or top-dose-only effect; inactive means flat fitted curve, though single readings scatter. Potencies of inconclusive entries are left out as doubtful fits.

assay: qHTS for Inhibitors of human tyrosyl-DNA phosphodiesterase 1 (TDP1): qHTS in cells in absence of CPT; conditions: DT40 Tdp1-/- hTDP1 cells, no CPT, ATP luminescence, 48 h; activity change, negative = growth inhibition: at 46.2 µM (top of the series) unless noted; further: nearly all actives have a fitted effect of over 55% in size
Outline: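 Growth of hTDP1-complemented DT40 Tdp1-knockout cells is measured by ATP luminescence after at least 48 hr compound exposure at 37 °C, with DMSO substituting for the 20 nM CPT used in the parallel screen.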
On the % scale 0 is the no-effect control and ±100 the full control effect; potency means the concentration at half of the fitted maximal effect; tags describe the fitted curve by direction and shape.

| Compound | Potency | activity change, negative = growth inhibition |
| --- | --- | --- |
| CCCCNC(=O)c1nn(-c2ccc(CC)cc2)nc1CO | inconclusive [inhibitor, single point] | – |
| Cc1cccc(NC(=O)C2CCN(S(=O)(=O)c3ccc(F)cc3)CC2)c1C | – | inactive: -16.8% |
| O=C(O)CCN1C(=O)C(=C2CCCCCC2)SC1=S | – | inactive: -5.18% |
| COc1cc(/C=C/C(=O)O)ccc1OS(=O)(=O)c1c(C)c(C)cc(C)c1C | – | inactive: 8.5% |
| CN(C)C(=O)c1cccc(-c2cccc(-c3nc(C(=O)NCc4ccccc4)cc4c3[C@@H](CCO)N(S(=O)C(C)(C)C)C4)c2)c1 (stereo partly drawn) | active: 14.6 µM | – |
| O=C(O)c1cccc(-c2csc(C(O)c3ccc(F)c(F)c3)n2)c1 (stereo not drawn) | – | inactive: 5.35% |
| CCNC(=O)C1CCCN(Cc2cc(-c3ccccc3)on2)CC1 (stereo not drawn) | inconclusive [inhibitor, single point] | – |
| Cc1nn(C)c2ncc(C(N)=O)c(Oc3ccc(Cl)cc3)c12 | inconclusive [inhibitor, partial curve] | – |
| O=C(Nc1cccc(Cl)c1N1CCOCC1)c1cccnc1Cl | inconclusive [inhibitor, partial curve, poor fit] | – |
| CCCCCCCCN1C(=O)[C@H](CC(=O)NCCCOC)C[C@@]2(C(=O)OCC)CCCC=C12 | active: 11.6 µM | – |
| CCC(NC(=O)c1cc(COc2ccc(F)cc2Cl)on1)c1ccncc1 (stereo not drawn) | active: 23.1 µM | – |
| CC(=O)N1CCN(c2nc(CC(C)C)c3c(c2C#N)CCC3)CC1 | inconclusive [inhibitor, partial curve] | – |
| C/C(=N\NC(=O)CN1CCN(S(=O)(=O)c2ccc(C)cc2)CC1)c1ccncc1 | – | inactive: 16.1% |
| CC(C)(C)OC(=O)NCCCCCNC(=O)c1nc[nH]c1C(=O)NCC(=O)OCc1ccccc1 | active: 14.6 µM | – |
| O=C(Nc1ccccc1)N(Cc1ccccc1)Cc1ccccc1 | inconclusive [inhibitor, single point] | – |
| COc1ccc(Nc2nc(=O)c3cc([N+](=O)[O-])ccc3s2)cc1 | – | inactive: 26% |
| Cc1ccc(S(=O)(=O)Nc2cccnc2)c(C)c1C | inconclusive [inhibitor, single point] | – |
| CCOC(=O)C1=C(COC(=O)/C=C/c2ccc(OCC)c(OC)c2)NC(=O)NC1C (stereo not drawn) | inconclusive [inhibitor, single point] | – |
| CN1C(=O)N(C)c2ccc(C=O)c3cccc1c23 | inconclusive [inhibitor, single point] | – |
| Cc1ccc(C(=O)NC(=S)NNC(=O)COc2ccccc2C)cc1 | inconclusive [inhibitor, single point] | – |
| CCOC(=O)C1C(C(=O)OC)=C(c2ccc(OC)cc2)c2ccccc2N1S(=O)(=O)C(F)(F)F (stereo not drawn) | active: 16.4 µM | – |
| CCOc1ccc(S(=O)(=O)Nc2ccncc2)c(C)c1C | – | inactive: -7.83% |
| Cc1ccc(NC(=O)COC(=O)CNC(=O)c2ccc(Cl)cc2Cl)cc1S(=O)(=O)N1CCOCC1 | – | inactive: 1.87% |
| Cc1cc(NC(=O)c2ccc(F)cc2)n(-c2ccccn2)n1 | inconclusive [inhibitor, single point] | – |
| CCCn1c(=O)sc2cc(NC(=O)COc3ccc(Cl)cc3)ccc21 | inconclusive [inhibitor, single point] | – |

| Compound | Potency | activity change, negative = growth inhibition |
| --- | --- | --- |
| CCOC(=O)c1ccc(NS(=O)(=O)c2ccc3c(c2)n(C)c(=O)n3C)cc1 | active: 9.2 µM and active: 18.4 µM | – |
| CN1CCOc2cc(S(=O)(=O)Nc3ccc(F)cc3)ccc21 | inconclusive [inhibitor, single point] | – |
| Cc1oc(-c2cccc(Cl)c2)nc1CN1CCC(C(=O)NCC2CCCO2)CC1 (stereo not drawn) | – | inactive: -0.879% |
| COc1cccc(CN(C(=O)c2oc3cc(C)ccc3c2C)C2CCS(=O)(=O)C2)c1 (stereo not drawn) | active: 18.4 µM | – |
| COc1cc2c(cc1OC)C1(CCCC1)C(N)=C2C#N | inconclusive [inhibitor, single point] | – |
| CCN(CC)CC(C)CNC(=O)c1cc(-c2ccc(Br)s2)nc2ccccc12 (stereo not drawn) | active: 9.2 µM | – |
| N#Cc1ccc2ccn(CC(=O)NC3CCCCC3)c2c1 | – | inactive: -17.5% |
| O=C(NC1CCS(=O)(=O)C1)c1ccc2c(c1)OCO2 (stereo not drawn) | – | inactive: -0.374% |
| CCO[C@H]1OC(C(=O)N2CCN(C)CC2)=C[C@@H](C2CC2)[C@@H]1CCCO | – | inactive: -5.59% |
| COCC(=O)N1CCC(n2nccc2NC(=O)CCOc2ccccc2)CC1 | – | inactive: -5.32% |
| Cc1ncc(-c2ccc(F)cc2)c(C2CCCN(Cc3cccc(O)c3)C2)n1 (stereo not drawn) | active: 20.6 µM | – |
| CCOc1ccccc1NC(=O)c1ccc(S(=O)(=O)N(C)c2ccccc2)cc1 | inconclusive [inhibitor, single point] | – |
| O=C(OCc1ccccc1)N1CCN(C(c2ccnc3ccccc23)c2nnnn2-c2ccc3c(c2)OCCO3)CC1 (stereo not drawn) | active: 8.2 µM | – |
| CC1(C(=O)NCc2cccc(Cl)c2)Cc2c(-c3cccc(C(N)=O)c3)ccnc2O1 (stereo not drawn) | inconclusive [inhibitor, single point] | – |
| CN(CC(=O)Nc1ccc(Cl)cc1)C(=O)c1cc(-c2cccs2)nn1-c1ccccc1 | inconclusive [inhibitor, single point] | – |
| Cc1nc2ccccc2n1CC(O)Cn1c(C(F)(F)F)nc2ccccc21 (stereo not drawn) | inconclusive [inhibitor, partial curve, poor fit] | – |
| CC(=O)N(Cc1ccc(F)cc1)c1cccc(C)c1C | active: 20.6 µM | – |
| COc1cccc(C(=O)NCCNc2nc3cc(C)cc(C)c3cc2C#N)c1 | inconclusive [inhibitor, single point] | – |
| O=C1NC[C@@H](CCCCN2CCN(CCc3ccc(O)cc3)C(=O)C2=O)N(CCc2ccc(O)cc2)C1=O | – | inactive: -14% |
| CCOc1ccc(Nc2ccc(S(=O)(=O)N3CCOCC3)cc2[N+](=O)[O-])cc1 | inconclusive [inhibitor, single point] | – |
| CCCC(O)(c1ccccc1)C(c1ccccc1)c1ccccn1 (stereo not drawn) | inconclusive [inhibitor, single point] | – |
| COc1ccc(-c2nc(CSCC(=O)N3CCN(c4cccc(C)c4C)CC3)c(C)o2)cc1OC | active: 23.1 µM | – |
| Cc1ccccc1S(=O)(=O)N1CCN(c2nc(-c3cccs3)nc3ccccc23)CC1 | inconclusive [inhibitor, single point] | – |
| CCC(=O)c1ccc(OCC(O)Cn2nc(C)c(C(C)=O)c2C)cc1 (stereo not drawn) | – | inactive: -0.93% |
| Cc1ccc(Sc2oc(/C=N/n3cnnc3)cc2Br)cc1 | inconclusive [inhibitor, single point] | – |

| Compound | Potency | activity change, negative = growth inhibition |
| --- | --- | --- |
| COc1ccc(CCNC(=O)c2ccc3c(c2)c(C)c(C)n3Cc2ccc(F)cc2)c(OC)c1OC | active: 23.1 µM | – |
| CC1(C(=O)NS(=O)(=O)c2ccc(C#N)cc2)CCN1C(=O)c1ccc(C2CCCCC2)cc1 (stereo not drawn) | – | inactive: -14.8% |
| C=Cc1ccc(Cn2c(C)c(C(=O)NCc3ccccc3C(F)(F)F)sc2=O)cc1 | inconclusive [inhibitor, single point] | – |
| COc1ccccc1N1CCN(C(=O)CCCNC(=O)Cn2cnc3sc(C)c(C)c3c2=O)CC1 | inconclusive [inhibitor, single point] | – |
| CCN1CCc2c(sc(NC(=O)C3CCCCC3)c2C(=O)OC)C1 | inconclusive [inhibitor, single point] | – |
| O=C(O)COc1ccc(/C=C2/SC(=S)N(Cc3ccccc3)C2=O)cc1 | – | inactive: -3.79% |
| O=C(CSc1nnc(NC2CCCCC2)s1)NCc1ccco1 | – | inconclusive: -32% [inhibitor] |
| COc1ccc(C(=O)Nc2ccc3[nH]ccc3c2)cc1OC | – | inactive: 3.03% |
| Cc1cc(C(=O)COC(=O)c2cnccn2)c(C)n1-c1ccc(Br)cc1 | – | inconclusive: -32.7% [inhibitor] |
| Cc1nnc(NC(=O)CSCc2cc(=O)c3cc(Cl)ccc3[nH]2)s1 | – | inactive: 1.57% |
| CC(=O)c1cccc(NC(=O)C2(C)Cc3c(-c4cccc(C(F)(F)F)c4)ccnc3O2)c1 (stereo not drawn) | active: 23.1 µM | – |
| CN1CCc2nc(SCc3ccc(C(C)(C)C)cc3)c(C#N)cc2C1 | inconclusive [inhibitor, single point] | – |
| Cc1onc(-c2ccccc2Cl)c1C(=O)Nc1cccc2nsnc12 | inconclusive [inhibitor, full curve] | – |
| O=c1c(-c2ccccc2)nc2ccccc2n1C(CCc1ccccc1)c1nc2ccccc2[nH]1 (stereo not drawn) | inconclusive [inhibitor, single point] | – |
| CCOC(=O)c1cnc(SCC(=O)Nc2sc(C)c(C)c2C#N)nc1N | inconclusive [inhibitor, partial curve] | – |
| COc1cccc(CNC(=O)[C@H](CC(C)C)NC(=O)N2CCn3c2nc2ccccc23)c1 | inconclusive [inhibitor, single point] | – |
| O=C(C[N+]12CN3CN(CN(C3)C1)C2)c1ccc(O)c(O)c1 | inconclusive [inhibitor, single point] | – |
| COc1cccc(C(=O)Nc2ccccc2C(=O)OCc2cc(=O)n3nc(C4CC4)sc3n2)c1 | – | inactive: -2.01% |
| COc1cc(OC)c2ccc(=O)oc2c1C(CCN1CCN(c2ccccc2)CC1)c1ccc(N(C)C)cc1 (stereo not drawn) | inconclusive [inhibitor, single point] | – |
| Cn1c(O)c(/C=C2\C=Nc3ccccc32)sc1=Nc1ccc(C(=O)O)cc1 | – | inactive: 11.6% |
| O=C(O)c1ccc(CN(c2ccccn2)S(=O)(=O)c2ccccc2)cc1 | – | inactive: -2.89% |
| O=C(Nc1cccc2nsnc12)c1cccs1 | inactive | – |
| Cc1ccccc1CN1C(=O)/C(=C\c2ccc(C(=O)NCCN3CCOCC3)cc2)Sc2ccccc21 | inconclusive [inhibitor, single point] | – |
